The other results are listed elsewhere or left out. Values were computed here from the reads of four pooled replicates and scatter widely.

This assay has as its target T1, Pho4 (S. cerevisiae) (UniProt P07270).
T1 sequence: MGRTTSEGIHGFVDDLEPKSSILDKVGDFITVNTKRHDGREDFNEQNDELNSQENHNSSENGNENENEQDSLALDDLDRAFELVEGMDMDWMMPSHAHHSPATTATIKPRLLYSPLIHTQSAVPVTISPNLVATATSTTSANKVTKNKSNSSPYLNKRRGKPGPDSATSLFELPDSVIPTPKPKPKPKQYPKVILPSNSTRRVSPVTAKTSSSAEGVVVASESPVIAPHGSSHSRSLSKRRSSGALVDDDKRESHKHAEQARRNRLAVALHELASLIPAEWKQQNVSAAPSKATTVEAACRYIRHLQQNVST
Description: relative binding free energy (BET-seq); higher = weaker binding. The note with it: reference: library average.
On to TTATGCACGTGTCGTC, for which the “relative binding free energy” value came out at 0.05 kcal/mol.
Under ATGCTCACGTGCAGGG stands 0.15 kcal/mol; under AGGAACACGTGGGTTT, 0 kcal/mol; under GTGTACACGTGTTGTC, 0.12 kcal/mol.
Under AGTGCCACGTGTTTTT stands -0.02 kcal/mol.
Under TTGTTCACGTGGAGAC stands 0.34 kcal/mol; under GTGAGCACGTGTGGAC, -0.01 kcal/mol; under ATGTACACGTGTGCGG, 0.02 kcal/mol.
On to TTTGTCACGTGTTATC, for which the “relative binding free energy” value came to 0.19 kcal/mol.
In the case of TGCGGCACGTGAATGC it was 0.24 kcal/mol; in that of CCTGGCACGTGGGTGT, -0.21 kcal/mol; in that of CGAGACACGTGTGGTA, -0.01 kcal/mol.
Under GTGTACACGTGGGTTA stands -0.08 kcal/mol; under ACGGTCACGTGATAGG, 0.17 kcal/mol; under GAGGGCACGTGCTAGT, -0.19 kcal/mol.
Consider TTTTTCACGTGAAGTG, for which the “relative binding free energy” value was 0.42 kcal/mol.
In the case of TGAGTCACGTGGCTGG, the “relative binding free energy” value was -0.05 kcal/mol.
Take GTGTCCACGTGGGGGC: the “relative binding free energy” value is -0.15 kcal/mol.
On to GTTTGCACGTGTCGGC, for which the “relative binding free energy” value came out at 0.11 kcal/mol.
In the case of TGACTCACGTGGTGGG, the “relative binding free energy” value was determined as 0.2 kcal/mol.
Turning to GGTGTCACGTGTGCTT, the “relative binding free energy” value was determined as 0.06 kcal/mol.
In the case of GTGGTCACGTGCTTTA it was 0.22 kcal/mol; in that of CGGAGCACGTGTGGGA, 0.01 kcal/mol.
Under CTTTGCACGTGATGGC stands 0.13 kcal/mol; under GCTGTCACGTGAGTCT, 0.51 kcal/mol.
In the case of GGCGCCACGTGGCGGT it was 0.01 kcal/mol.
Take AAGGGCACGTGTGGAA: the “relative binding free energy” value is -0.06 kcal/mol.
As for CGTAGCACGTGGGTTC, the “relative binding free energy” value was -0.19 kcal/mol.
In the case of GGTATCACGTGTATTA it was 0.22 kcal/mol; in that of GGTAACACGTGGCATG, -0.06 kcal/mol; in that of ATGGTCACGTGCGTGG, 0.04 kcal/mol.
Regarding AGGGGCACGTGTTGCC, the “relative binding free energy” value is -0.12 kcal/mol.
Under GCTAGCACGTGTAGTG stands 0.03 kcal/mol.
For the sequence AAGTACACGTGGTTAG, the “relative binding free energy” value was -0.02 kcal/mol.
In the case of TTTTTCACGTGACTTA it was 0.19 kcal/mol.
As for GGTAGCACGTGGCATG, the “relative binding free energy” value is -0.19 kcal/mol.
Take CTGGTCACGTGAGTAG: the “relative binding free energy” value turned out to be 0.36 kcal/mol.
Under GTCGTCACGTGGCATG stands 0.19 kcal/mol; under ATCGTCACGTGGTTGA, 0.08 kcal/mol; under GGTTTCACGTGAGGCT, 0.42 kcal/mol.
Consider CGAAGCACGTGGTGTA, for which the “relative binding free energy” value is -0.17 kcal/mol.
For the sequence TTTACCACGTGTTTGA, the “relative binding free energy” value came out at 0.06 kcal/mol.
Under TGTGTCACGTGGGCAA stands -0.03 kcal/mol.
Under GTGTGCACGTGCGTCA stands -0.13 kcal/mol.
For the sequence GGGTGCACGTGGTGGT, the “relative binding free energy” value was -0.02 kcal/mol.
Under TAAGTCACGTGCGTGT stands 0.11 kcal/mol.
In the case of GTGTGCACGTGAATAA it was 0.11 kcal/mol.
Under GTGGTCACGTGGTGCT stands -0.01 kcal/mol; under GGGCACACGTGGAGTT, 0.07 kcal/mol.
GGACACACGTGTGGTT: the “relative binding free energy” value stood at 0.23 kcal/mol.
For the sequence AAATGCACGTGGTCTT, the “relative binding free energy” value is -0.18 kcal/mol.
As to AGATACACGTGGGGGA, the “relative binding free energy” value was -0.05 kcal/mol.
Under TTTGTCACGTGCGCTT stands -0.13 kcal/mol.
Under AGTAGCACGTGTGAGA stands 0.06 kcal/mol.
Under ATGCACACGTGTAGGT stands 0.07 kcal/mol; under TTCATCACGTGGTTAT, 0.02 kcal/mol.
For AGGATCACGTGGTTTT, the “relative binding free energy” value was 0.21 kcal/mol.
For the sequence AATTACACGTGATTTG, the “relative binding free energy” value turned out to be 0.23 kcal/mol.
In the case of CGCTGCACGTGATGGG it was -0.03 kcal/mol; in that of AGCTTCACGTGTGGAG, 0.38 kcal/mol.
In the case of GGCGGCACGTGGGTCT it was -0.15 kcal/mol.
In the case of TTGTTCACGTGCTACT it was 0.26 kcal/mol; in that of CTGAGCACGTGGAGTA, 0.05 kcal/mol.
As to GATGCCACGTGTTATG, the “relative binding free energy” value was -0.02 kcal/mol.
For GGTTTCACGTGGTCGC, the “relative binding free energy” value amounted to 0.31 kcal/mol.
Under ATGCGCACGTGATGTG stands -0.1 kcal/mol.
Consider AAGACCACGTGGGGGT, for which the “relative binding free energy” value was -0.26 kcal/mol.
TCGGTCACGTGGTTGC: the “relative binding free energy” value amounted to 0.1 kcal/mol.
Under CTTTGCACGTGAGTTT stands 0.12 kcal/mol.
Under TGGTGCACGTGTTAGT stands 0 kcal/mol.
Take AGAGGCACGTGGGGCG: the “relative binding free energy” value was -0.23 kcal/mol.
In the case of AGGGGCACGTGAGGTA it was 0.11 kcal/mol; in that of GATGTCACGTGACAGG, 0.29 kcal/mol; in that of TACGTCACGTGAAGGG, 0.32 kcal/mol.
For AAGTACACGTGTTCAG, the “relative binding free energy” value is 0.19 kcal/mol.
Under GTTGTCACGTGTGTCG stands 0.17 kcal/mol.
Under TGCGCCACGTGGGGCG stands -0.21 kcal/mol; under TGGTTCACGTGTGGGC, 0.27 kcal/mol.
As to ATAATCACGTGTGTTT, the “relative binding free energy” value is 0.1 kcal/mol.
Under CTAAGCACGTGGGGTT stands -0.28 kcal/mol; under GATTACACGTGTGGAG, 0.07 kcal/mol; under TTTAGCACGTGATAAT, 0.18 kcal/mol.
As for GGTCGCACGTGTGATT, the “relative binding free energy” value is -0.11 kcal/mol.
In the case of GCATTCACGTGTGCGG, the “relative binding free energy” value turned out to be 0.23 kcal/mol.
In the case of TTGTTCACGTGCTGAT it was 0.08 kcal/mol; in that of AGTGGCACGTGCAATG, -0.08 kcal/mol; in that of CGCGTCACGTGGGTCG, -0.01 kcal/mol.
Turning to CTTTGCACGTGTTGAC, the “relative binding free energy” value amounted to 0.19 kcal/mol.
TGAGGCACGTGATGAG: the “relative binding free energy” value was -0.1 kcal/mol.
On to TGGTTCACGTGTGTAG, for which the “relative binding free energy” value was found to be 0.4 kcal/mol.
Under AAGGGCACGTGGCCTT stands -0.08 kcal/mol; under ATATTCACGTGTGTCA, 0.31 kcal/mol; under ATGCGCACGTGGATGA, -0.03 kcal/mol.
Turning to TGTAGCACGTGGGAGT, the “relative binding free energy” value was -0.22 kcal/mol.
Under GTGGTCACGTGCAGGT stands 0.17 kcal/mol; under GCAGCCACGTGGGGTT, -0.13 kcal/mol; under ATGTGCACGTGTGTAT, -0.04 kcal/mol.
Under TGGGCCACGTGGGGTA stands -0.14 kcal/mol; under TGTCTCACGTGGGTGA, 0.03 kcal/mol; under AAGGCCACGTGGGTAG, -0.15 kcal/mol.
In the case of TGTGGCACGTGGAGAG it was -0.11 kcal/mol; in that of TTCGACACGTGGTTTA, 0.1 kcal/mol.
Take GCTTTCACGTGAGGAT: the “relative binding free energy” value stood at 0.43 kcal/mol.
Take TCGGACACGTGGGGGT: the “relative binding free energy” value is -0.13 kcal/mol.
As for AGGCTCACGTGGTGTT, the “relative binding free energy” value was 0.14 kcal/mol.
With AGTCTCACGTGGATTA, the “relative binding free energy” value came to 0.29 kcal/mol.
In the case of CGTAGCACGTGTCTTT it was 0.03 kcal/mol; in that of AGAAGCACGTGTAGGG, -0.04 kcal/mol.
In the case of TTGCGCACGTGTTACG it was 0 kcal/mol.
In the case of AAGGCCACGTGCGGTT, the “relative binding free energy” value was -0.09 kcal/mol.
In the case of ATGTGCACGTGGTTCA it was -0.14 kcal/mol; in that of TTGGTCACGTGAGCAT, 0.26 kcal/mol; in that of GATCTCACGTGGGGAG, 0.22 kcal/mol.
For CATACCACGTGGGGGT, the “relative binding free energy” value was -0.09 kcal/mol.
AGGATCACGTGAATGG: the “relative binding free energy” value is 0.37 kcal/mol.
In the case of GTGGGCACGTGGTGGA, the “relative binding free energy” value is -0.04 kcal/mol.
Under GGGTGCACGTGTTAAG stands 0.08 kcal/mol; under CTTCGCACGTGGAGTG, 0.03 kcal/mol; under GGGTACACGTGGTTCT, 0 kcal/mol.
Under TTTCACACGTGGTTTA stands 0 kcal/mol; under TGTCGCACGTGTAAGA, 0.06 kcal/mol; under CGAGTCACGTGATTTG, 0.35 kcal/mol.
For TGGAACACGTGTTCTT, the “relative binding free energy” value stood at 0.04 kcal/mol.
Regarding TGGTCCACGTGAGGAT, the “relative binding free energy” value was 0.33 kcal/mol.
In the case of TATTTCACGTGTTTCC it was 0.34 kcal/mol; in that of TATTGCACGTGGGATT, -0.04 kcal/mol.
TTATACACGTGGAGGG: the “relative binding free energy” value was 0.06 kcal/mol.
Under TGGTGCACGTGAGTTA stands 0.26 kcal/mol; under TTGAGCACGTGGACGT, -0.05 kcal/mol.
Regarding TTGTGCACGTGTAATC, the “relative binding free energy” value turned out to be 0.08 kcal/mol.
In the case of TGGGTCACGTGGCCTT it was 0.01 kcal/mol; in that of TGGCGCACGTGACGTT, 0.12 kcal/mol.
For the sequence TGCTTCACGTGGTTTT, the “relative binding free energy” value was found to be 0.2 kcal/mol.
Regarding CCTAGCACGTGTGGTG, the “relative binding free energy” value was -0.06 kcal/mol.
Regarding TGGTACACGTGGTTGA, the “relative binding free energy” value worked out at 0.05 kcal/mol.
In the case of CGTTGCACGTGTTGAG it was 0.05 kcal/mol.
On to GTTTCCACGTGTGTCG, for which the “relative binding free energy” value was determined as 0.15 kcal/mol.
As to TAAGTCACGTGGATAT, the “relative binding free energy” value turned out to be 0.13 kcal/mol.
In the case of TAAGTCACGTGAAGGA it was 0.46 kcal/mol; in that of GATTCCACGTGTTTGG, 0.06 kcal/mol.
AGATGCACGTGTTTGC: the “relative binding free energy” value is -0.02 kcal/mol.
Under GTGGTCACGTGTAACG stands 0.26 kcal/mol.
In the case of TTACTCACGTGTGGAG it was 0 kcal/mol; in that of CATGTCACGTGAGAGG, 0.17 kcal/mol; in that of AGTCGCACGTGTAAGG, -0.05 kcal/mol.
GGTATCACGTGTCGGA: the “relative binding free energy” value stood at 0.39 kcal/mol.
